Structures can show the parent of a compound that is named as a salt. ± gives the standard deviation of the averaged measurements. In all, about 1,300 compounds were measured (“normalised cell viability”: median about 1, lowest 2% from about 0.15 on). This is one part of the list.
Test system: V-C8 + BRCA2 (BRCA2-proficient hamster cells)
Assay: normalised cell viability (fraction of plate median); higher = more viable cells (less toxic)
Details: 5 µM
Outline: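 Hamster V-C8 cells with and without restored BRCA2 were exposed in 96-well plates to library drugs at 5 μM for 3 days (screen 1) or 6 days (screen 2). Cell viability was scored by resazurin assay, then median-plate normalised, averaging triplicate wells.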

C#CCN[C@@H]1CCc2ccccc21 [Rasagiline]
normalised cell viability (treatment time: 3 days): 1.01 ± 0.017
normalised cell viability (treatment time: 6 days): 1.03 ± 0.065

COc1ccc(-c2cc(=S)ss2)cc1 [Anethole-trithione]
normalised cell viability (treatment time: 3 days): 0.941 ± 0.12
normalised cell viability (treatment time: 6 days): 0.935 ± 0.05

O=C(O)c1cn(C2CC2)c2cc(N3CCNCC3)c(F)cc2c1=O [Ciprofloxacin hydrochloride hydrate]
normalised cell viability (treatment time: 3 days): 1.15 ± 0.079
normalised cell viability (treatment time: 6 days): 1.04 ± 0.035

Cc1ccc(NC(=O)c2ccc(CN3CCN(C)CC3)cc2)cc1Nc1nccc(-c2cccnc2)n1 [Imatinib]
normalised cell viability (treatment time: 3 days): 1.04 ± 0.033
normalised cell viability (treatment time: 6 days): 1.03 ± 0.13

CCOC(=O)O[C@]1(C(=O)OCCl)CC[C@H]2[C@@H]3CCC4=CC(=O)C=C[C@]4(C)[C@H]3[C@@H](O)C[C@@]21C [Loteprednol etabonate]
normalised cell viability (treatment time: 3 days): 0.996 ± 0.016
normalised cell viability (treatment time: 6 days): 0.944 ± 0.073

Clc1ccc(C(Cn2ccnc2)OCc2ccsc2Cl)c(Cl)c1 (stereo not given) [Tioconazole]
normalised cell viability (treatment time: 3 days): 1.11 ± 0.075
normalised cell viability (treatment time: 6 days): 0.998 ± 0.04

CCCC1C(=O)N2C(N(C)C)=Nc3ccc(C)cc3N2C1=O (stereo not given) [Azapropazone]
normalised cell viability (treatment time: 3 days): 1.08 ± 0.032
normalised cell viability (treatment time: 6 days): 1.02 ± 0.032

c1cnc(N2CCN(Cc3ccc4c(c3)OCO4)CC2)nc1 [Piribedil hydrochloride]
normalised cell viability (treatment time: 3 days): 0.9831 ± 0.0057
normalised cell viability (treatment time: 6 days): 0.854 ± 0.18

C[C@](N)(Cc1ccc(O)c(O)c1)C(=O)O [Methyldopa (L,-)]
normalised cell viability (treatment time: 3 days): 0.895 ± 0.0099
normalised cell viability (treatment time: 6 days): 1.08 ± 0.093

C[C@H]1c2cccc(O)c2C(=O)C2=C(O)[C@]3(O)C(=O)C(C(N)=O)=C(O)[C@@H](N(C)C)[C@@H]3[C@@H](O)[C@@H]21 [Doxycycline hydrochloride]
normalised cell viability (treatment time: 3 days): 0.947 ± 0.025
normalised cell viability (treatment time: 6 days): 0.982 ± 0.033
